# Reference: the supplement of paper PMC8728848
# This is one part of the list.
# Assays:
# Assay in all cases: glycan array binding signal (z-score within array); higher = stronger binding
# Conditions in all cases: glycan notation: IUPAC condensed, linker removed
# [1] = biological target: GlcNAc(b1-3)Gal(b1-4)GlcNAc
# Outline: (§1)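 Columns mapping to the same glycan were averaged after glycan names were converted to IUPAC-condensed notation. The data come from 3228 arrays in the Consortium for Functional Glycomics database, limited to those with an available protein sequence. Binding is reported as a within-array Z-score averaged across arrays of one protein sequence and across linkers.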
# [2] = biological target: GlcNAc(b1-3)Gal(b1-4)GlcNAc(b1-3)Gal(b1-4)GlcNAc
# Outline: as §1
# [3] = biological target: GlcNAc(b1-3)GalNAc
# Outline: as §1
# [4] = biological target: GlcNAc(b1-3)[GlcNAc(b1-6)]Gal(b1-4)GlcNAc
# Outline: as §1
# [5] = biological target: GlcNAc(b1-3)[GlcNAc(b1-6)]GalNAc
# Outline: as §1
# [6] = biological target: GlcNAc(b1-3)[GlcNAc(b1-6)]GlcNAc(b1-4)GlcNAc
# Outline: as §1
# [7] = biological target: GlcNAc(b1-4)Gal(b1-4)GlcNAc
# Outline: as §1
# [8] = biological target: GlcNAc(b1-4)GlcNAc(b1-4)GlcNAc
# Outline: as §1
# [9] = biological target: GlcNAc(b1-4)GlcNAc(b1-4)GlcNAc(b1-4)GlcNAc(b1-4)GlcNAc
# Outline: as §1
# [10] = biological target: GlcNAc(b1-4)GlcNAc(b1-4)GlcNAc(b1-4)GlcNAc(b1-4)GlcNAc(b1-4)GlcNAc
# Outline: as §1
# [11] = biological target: GlcNAc(b1-4)[GlcNAc(b1-6)]GalNAc
# Outline: as §1
# [12] = biological target: GlcNAc(b1-6)Gal(b1-4)GlcNAc
# Outline: as §1
# [13] = biological target: GlcNAc(b1-6)GalNAc
# Outline: as §1
# [14] = biological target: Kdn(a2-3)Gal(b1-3)GlcNAc
# Outline: as §1
# [15] = biological target: Kdn(a2-3)Gal(b1-4)GlcNAc
# Outline: as §1
# [16] = biological target: Man(a1-2)Man(a1-2)Man(a1-3)Man
# Outline: as §1
# [17] = biological target: Man(a1-2)Man(a1-2)Man(a1-6)[Man(a1-3)]Man
# Outline: as §1
# [18] = biological target: Man(a1-2)Man(a1-3)Man
# Outline: as §1
# [19] = biological target: Man(a1-2)Man(a1-3)[Man(a1-2)Man(a1-6)]Man
# Outline: as §1
# [20] = biological target: Man(a1-2)Man(a1-3)[Man(a1-2)Man(a1-6)]Man(a1-6)[Man(a1-2)Man(a1-2)Man(a1-3)]Man(b1-4)GlcNAc(b1-4)GlcNAc
# Outline: as §1
# [21] = biological target: Man(a1-2)Man(a1-3)[Man(a1-6)]Man(a1-6)[Man(a1-2)Man(a1-3)]Man(b1-4)GlcNAc(b1-4)GlcNAc
# Outline: as §1
# [22] = biological target: Man(a1-2)Man(a1-6)[Man(a1-3)]Man(a1-6)[Man(a1-2)Man(a1-2)Man(a1-3)]Man(b1-4)GlcNAc(b1-4)GlcNAc
# Outline: as §1
# [23] = biological target: Man(a1-3)[Man(a1-6)]Man
# Outline: as §1
# [24] = biological target: Man(a1-3)[Man(a1-6)]Man(a1-6)[Man(a1-2)Man(a1-3)]Man(b1-4)GlcNAc(b1-4)GlcNAc
# Outline: as §1
# [25] = biological target: Man(a1-3)[Man(a1-6)]Man(a1-6)[Man(a1-3)]Man(b1-4)GlcNAc(b1-4)GlcNAc
# Outline: as §1
# [26] = biological target: Man(a1-3)[Man(a1-6)]Man(b1-4)GlcNAc(b1-4)GlcNAc
# Outline: as §1
# [27] = biological target: Man(b1-4)GlcNAc
# Outline: as §1
# [28] = biological target: Neu5Ac(a2-3)Gal
# Outline: as §1
# [29] = biological target: Neu5Ac(a2-3)Gal(b1-3)GalNAc
# Outline: as §1
# [30] = biological target: Neu5Ac(a2-3)Gal(b1-3)GalNAc(b1-3)Gal(a1-4)Gal(b1-4)Glc
# Outline: as §1
# [31] = biological target: Neu5Ac(a2-3)Gal(b1-3)GalNAc(b1-3)Gal(b1-4)GlcNAc
# Outline: as §1
# [32] = biological target: Neu5Ac(a2-3)Gal(b1-3)GalNAc(b1-4)[Neu5Ac(a2-3)]Gal(b1-4)Glc
# Outline: as §1
# [33] = biological target: Neu5Ac(a2-3)Gal(b1-3)GalNAc6S
# Outline: as §1
# [34] = biological target: Neu5Ac(a2-3)Gal(b1-3)GlcNAc
# Outline: as §1
# [35] = biological target: Neu5Ac(a2-3)Gal(b1-3)GlcNAc6S
# Outline: as §1
# [36] = biological target: Neu5Ac(a2-3)Gal(b1-3)[Fuc(a1-4)]GlcNAc
# Outline: as §1
# [37] = biological target: Neu5Ac(a2-3)Gal(b1-3)[Fuc(a1-4)]GlcNAc(b1-3)Gal(b1-4)[Fuc(a1-3)]GlcNAc
# Outline: as §1
# [38] = biological target: Neu5Ac(a2-3)Gal(b1-3)[Neu5Ac(a2-3)Gal(b1-4)]GlcNAc
# Outline: as §1
binder,measurement,setting,value
"F17fG (Escherichia coli), Q9RH91 (protein) MTNFYKVFLAVFILVCCNISHAAVSFIGSTENDVGPSQGSYSSTHAMDNLPFVYNTGHNIGYQNANVWRISGGFCVGLDGKVDLPVVGSLDGQSIYGLTEEVGLLIWMGDTNYSRGTAMSGNSWENVFSGWCVGNYVSTQGLSVHVRPVILKRNSSAQYSVQKTSIGSIRMRPYNGSSAGSVQTTVNFSLNPFTLNDTVTSCRLLTPSAVNVSLAAISAGQLPSSGDEVVAGTTSLKLQCDAGVTVWATLTDATTPSNRSDILTLTGASTATGVGLRIYKNTDSTPLKFGPDSPVKGNENQWQLSTGTETSPSVRLYVKYVNTGEGINPGTVNGISTFTFSYQ",glycan array binding signal (z-score),[1],2.55
same,glycan array binding signal (z-score),[2],0.224
same,glycan array binding signal (z-score),[3],1.77
same,glycan array binding signal (z-score),[4],6.97
same,glycan array binding signal (z-score),[5],1.06
same,glycan array binding signal (z-score),[6],0.169
same,glycan array binding signal (z-score),[7],1
same,glycan array binding signal (z-score),[8],0.055
same,glycan array binding signal (z-score),[9],-0.192
same,glycan array binding signal (z-score),[10],-0.266
same,glycan array binding signal (z-score),[11],3.53
same,glycan array binding signal (z-score),[12],0.025
same,glycan array binding signal (z-score),[13],0.437
same,glycan array binding signal (z-score),[14],-0.176
same,glycan array binding signal (z-score),[15],-0.234
same,glycan array binding signal (z-score),[16],-0.316
same,glycan array binding signal (z-score),[17],-0.391
same,glycan array binding signal (z-score),[18],-0.342
same,glycan array binding signal (z-score),[19],-0.357
same,glycan array binding signal (z-score),[20],-0.304
same,glycan array binding signal (z-score),[21],-0.263
same,glycan array binding signal (z-score),[22],-0.322
same,glycan array binding signal (z-score),[23],-0.298
same,glycan array binding signal (z-score),[24],-0.319
same,glycan array binding signal (z-score),[25],-0.33
same,glycan array binding signal (z-score),[26],-0.241
same,glycan array binding signal (z-score),[27],-0.319
same,glycan array binding signal (z-score),[28],-0.228
same,glycan array binding signal (z-score),[29],-0.237
same,glycan array binding signal (z-score),[30],-0.282
same,glycan array binding signal (z-score),[31],-0.221
same,glycan array binding signal (z-score),[32],-0.169
same,glycan array binding signal (z-score),[33],-0.074
same,glycan array binding signal (z-score),[34],-0.22
same,glycan array binding signal (z-score),[35],-0.26
same,glycan array binding signal (z-score),[36],-0.228
same,glycan array binding signal (z-score),[37],0.311
same,glycan array binding signal (z-score),[38],-0.105
